Among the data in PubChem BioAssay AID1346428 (National Center for Advancing Translational Sciences (NCATS), 2018) are activation values, retold here.

SMILES strings stand for the structures. The whole screen tested about 48,000 compounds, of which about 1,200 (2.5%) were called active. Roughly 2% stayed inconclusive and do not appear here.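 The calls were made as follows: active = activation of at least 60% and not above a set upper limit (about 1 call in 100 departs from these limits); inconclusive = activation of 40% to 60%, or above that upper limit; inactive = activation under 40%.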 The list shows a part of the results.

UniProt O75388, sequence (O75388 whole entry, looked up): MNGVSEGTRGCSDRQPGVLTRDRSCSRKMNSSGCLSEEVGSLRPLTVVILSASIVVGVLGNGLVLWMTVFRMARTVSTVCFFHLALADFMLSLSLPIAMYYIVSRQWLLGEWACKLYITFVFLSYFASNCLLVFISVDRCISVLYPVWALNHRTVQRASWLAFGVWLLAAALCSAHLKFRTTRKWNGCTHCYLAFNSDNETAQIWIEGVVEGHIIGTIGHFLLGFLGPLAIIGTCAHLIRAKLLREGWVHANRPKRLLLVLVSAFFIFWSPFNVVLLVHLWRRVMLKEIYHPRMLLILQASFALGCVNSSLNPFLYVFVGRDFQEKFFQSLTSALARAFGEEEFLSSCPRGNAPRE

In this test the target is Probable G-protein coupled receptor 32 (Homo sapiens) (UniProt O75388). Briefly: qHTS for Agonists of Human Resolvin D1 Receptor DRV1. Also: 0% is about no effect. The note with it: CHO-K1 GPR32 beta-arrestin PathHunter luminescence, 90 min; at 76.9 µM; stronger effect = higher value; zero percent set by DMSO-only wells. The method in brief:
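PathHunter beta-arrestin recruitment in CHO-K1 cells stably expressing ProLink-tagged GPR32. Cells were exposed to compound for 90 min at 37 C, then chemiluminescence was read after 1 h detection at ambient temperature; DMSO served as basal control.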
For orientation: qHTS replaces the single test concentration by a dilution series.
Regarding `O=C(Cn1ccn(-c2ccc(F)cc2)c(=O)c1=O)Nc1ccc(F)cc1`, the activation is inactive: 0.816%.

In the case of `O=C(NCCc1ccc(Cl)cc1)c1ccc(CS(=O)(=O)c2ccc(Cl)cc2)o1`, the activation was inactive: -18.9%. Take `Cc1cccc(C)c1NC(=O)C(NS(=O)(=O)c1cccs1)c1ccccc1` (centres undefined): the activation is inactive: -12%. In the case of `O=C(Cn1ncc2c3ccccc3n(Cc3cccc(Cl)c3)c2c1=O)Nc1ccc(F)cc1F` it was inactive: -17.6%.

For `COc1cc(CNC(=O)c2ccc3c(c2)c(C)c(C)n3Cc2cccc(C)c2)cc(OC)c1OC`, the activation is inactive: -24.2%. The result for `COc1ccc(CNC(=O)CCc2c(C)c3cc4c(C)coc4c(C)c3oc2=O)cc1OC` reads inactive: -17.9%; that for `CCCCN(C)CCNC(=O)c1cc2c(=O)n(C)c3ccccc3c2n1C`, inactive: -4.13%. The result for `Cc1ccc(S(=O)(=O)CC(=O)N2CCN(c3nc4c(F)cccc4s3)CC2)cc1` reads inactive: 28.6%; that for `CN1C(=O)c2ccccc2Sc2ccc(NC(=O)c3ccc(C(F)(F)F)cc3)cc21`, inactive: 14.9%.

With `N#Cc1ccccc1NS(=O)(=O)c1ccc(N2CCCCS2(=O)=O)cc1`, the activation is inactive: 7.67%.

Take `CCCc1nn2c(=O)cc(COC(=O)c3ccc(NC(=O)COc4ccccc4)cc3)nc2s1`: the activation is inactive: -17.2%.

Regarding `CCn1c2c(c(=O)n3ncc(C(=O)N4CCN(c5ccc(Cl)cc5)CC4)c13)CN(Cc1ccc(OC)cc1)CC2`, the activation is inactive: -1%. Turning to `CCn1cc(C(=O)N2CCN(c3ccccc3)CC2)c(=O)c2cc(S(=O)(=O)N3CCOCC3)ccc21`, the activation was inactive: -0.709%. The result for `CCC(Oc1ccc(F)cc1)C(=O)Nc1c(C(=O)c2ccc(C)cc2)oc2ccccc12` (centres undefined) reads inactive: -13.6%; that for `COC(=O)c1cc2oc3ccccc3c2n1Cc1ccc(Cl)cc1`, inactive: -15.7%; that for `COc1ccc(-c2nc3scc(CCNS(=O)(=O)c4ccc(F)cc4C)n3n2)cc1`, inactive: 18.3%. In the case of `O=C1CSC2(C(=O)N(Cc3cccc(F)c3)c3ccccc32)N1c1cccc(C(F)(F)F)c1` (centres undefined) it was inactive: -23.6%. Turning to `CC(C)COc1ccc(C(=O)N2CCN(CCc3ccncc3)CC2)cc1`, the activation is inactive: 14.7%. `COc1cccc(CN2c3ccccc3-c3nc(SCC(=O)Nc4ccccc4Cl)ncc3S2(=O)=O)c1`: the activation is inactive: 3.72%.

Take `COc1ccc(Nc2cc(C(=O)NCCCN3CCN(c4ccccc4F)CC3)c3ccccc3n2)c(OC)c1`: the activation is inactive: -36.9%. With `Cc1ccc(-c2ccc(=O)n(CCC(=O)NCCc3ccccc3)n2)cc1`, the activation was inactive: 34.9%.

Consider `CCN(CC)CCNC(=O)c1cc2c(=O)n(C)c3cc(Cl)ccc3c2s1`, for which the activation is inactive: 6.28%. With `CCOC(=O)c1[nH]c(C)c(CCC(=O)NCc2ccc(CC)cc2)c1C`, the activation is inactive: -12.8%. In the case of `COc1ccc(N(C)C(=O)c2cn(C)c(=O)c3cc(OC)c(OC)cc23)cc1` it was inactive: 0.0355%.

In the case of `Cc1ccc(Cn2c(CO)cnc2SCC(=O)Nc2ccc(C)c(Cl)c2)cc1`, the activation is inactive: 31.9%. The result for `COc1ccc(NC(=O)c2ccc3nc(C(C)C)oc3c2)cc1OC` reads inactive: -10.9%; that for `O=C(c1cccn2c(=O)c3cc(Cl)ccc3nc12)N1CCN(c2ccccc2F)CC1`, inactive: -9.07%. The result for `CC(C)c1ccc(NC(=O)c2ccc(F)c(S(=O)(=O)N3CCc4ccccc4C3)c2)cc1` reads inactive: -3.07%; that for `CCOc1ccc(NC(=O)CC2C(=O)N(c3ccc(C)cc3)C(=O)N2CCC2=CCCCC2)cc1` (centres undefined), inactive: 8.1%. In the case of `Nc1nonc1-c1nc2ccccc2n1Cc1cccc(Cl)c1` it was inactive: 9.6%; in that of `CCOc1ccc(-n2nc(CO)c(C(=O)NCCCc3ccccc3)n2)cc1`, inactive: -19.9%. As to `CC(=O)Nc1ccc(S(=O)(=O)N2CCC(c3nnnn3-c3ccccc3)CC2)cc1`, the activation is inactive: 5.87%. As for `CCOc1ccc(C(=O)Nc2cccc(C(=O)OCc3cc(=O)n4nc(C5CC5)sc4n3)c2)cc1`, the activation was inactive: 0.878%. In the case of `COc1ccc(Cl)cc1NC(=O)Cn1cc(C(=O)c2ccc(C)cc2)c(=O)c2ccc(C)nc21` it was inactive: 29.6%; in that of `COc1ccc(CCNC(=O)c2c(O)nc3ccccn3c2=O)cc1`, inactive: 9.73%. The result for `Cc1ccccc1CN1C(=O)C2(c3ccccc31)N(c1ccccc1)C(=O)CS2(=O)=O` (centres undefined) reads inactive: -8.28%. In the case of `CCOC(=O)c1ccccc1NC(=O)CSc1nc(=O)[nH]c2c1CCC2` it was inactive: -8.24%.

For `O=C(COc1ccc(Cl)cc1)Nc1ccc(C(=O)OCc2cc(=O)n3ccsc3n2)cc1`, the activation was inactive: 15.5%. The result for `FC(F)(F)Oc1ccc2c(c1)NC(c1ccncc1)=NC(c1cccs1)=N2` reads inactive: -24.6%. In the case of `COc1ccc2oc(=O)c(C(=O)Nc3ccc(C(=O)O)cc3)cc2c1` it was inactive: 3.76%; in that of `C=CCc1cccc2cc(C(=O)Nc3ccc(F)cc3)c(=O)oc12`, inactive: -3.59%. Turning to `Cc1ccc(NC(=O)CCSc2nc(-c3ccco3)cc(C(F)(F)F)n2)cc1F`, the activation is inactive: -5.88%. Turning to `Cc1ccn2c(=O)c(C(=O)NCCCN3CCCCC3C)c(O)nc2c1` (centres undefined), the activation was inactive: -18.4%. In the case of `Nc1ccc(S(=O)(=O)Nc2ccc(Cl)nn2)cc1` it was inactive: 29.5%; in that of `CCOC(=O)N1CCN(Cc2nc3cc(NC(=O)c4ccc(OC)cc4)ccc3n2C(C)C)CC1`, inactive: -4.96%. In the case of `COc1ccc(OCC(=O)Nc2nnc3n2CCS3)cc1` it was inactive: -9.64%. In the case of `Cc1cc(C)c(NC(=O)CCn2c(=O)c3cccn3c3cccnc32)c(C)c1` it was inactive: -14.1%; in that of `Clc1cccc(CNc2cc(-c3ccccc3)nc3nncn23)c1`, inactive: -24.1%. Turning to `OCCN1CCN(C(c2ccccc2Cl)c2sc3nc(-c4ccco4)nn3c2O)CC1` (centres undefined), the activation is inactive: 11.9%. In the case of `COc1cccc(-c2cn3c(n2)sc2cc(C(=O)NCCc4ccc(OC)c(OC)c4)ccc23)c1` it was inactive: -13.2%; in that of `N#CC1=C(N)N(c2cccc(Cl)c2)C2=C(C(=O)CCC2)C1c1cc(CN2CCOCC2)cs1` (centres undefined), inactive: -3.68%. With `CC(C)N1C(=O)C(O)(c2c[nH]c3ccccc23)c2ccccc21` (centres undefined), the activation was inactive: -1.44%. The result for `Cc1cccc(N2CCn3c2nc2c3c(=O)n(CCc3ccccc3)c(=O)n2C)c1` reads inactive: -9.94%; that for `CCCS(=O)(=O)N1CC(=O)N(c2cc(C)ccc2C)C(C)(C(=O)NC2CCCCCC2)C1` (centres undefined), inactive: -8.91%. The result for `Cc1cccc(N2C(=O)CS(=O)(=O)C23C(=O)N(Cc2c(F)cccc2Cl)c2ccccc23)c1` (centres undefined) reads inactive: -8.12%; that for `CSc1cccc(NC(=O)CN2CCN(Cc3ccccc3C)S2(=O)=O)c1`, inactive: -17.4%. Consider `Cc1cc(N)c(-n2cc3c(c2-c2ccc(Br)cc2)c(=O)n(C)c(=O)n3C)cc1C`, for which the activation was inactive: -13.2%. In the case of `Cc1cc(C)cc(Oc2coc3cc(OCC(=O)NC4CCCCC4)ccc3c2=O)c1` it was inactive: -6.69%; in that of `Cc1ccc2onc(CNC(=O)NCc3cccc(Cl)c3)c2c1`, inactive: -4.05%; in that of `CCOc1ccc(OCC)c(NC(=O)CC(C)n2nc(C)cc2C)c1` (centres undefined), inactive: -16.7%.

In the case of `CCOc1ccc(-c2cc(C(=O)Nc3ccc(NC(C)=O)cc3)no2)cc1`, the activation is inactive: -3.12%. With `O=C(O)CCCNc1cc(N2CCN(C3CCCCC3)CC2)c2noc3c2c1C(=O)c1ccccc1-3`, the activation is inactive: 9.13%. The result for `Cc1cc2oc(C(=O)Nc3ccc(S(=O)(=O)Nc4ncccn4)cc3)cc(=O)c2cc1C` reads inactive: 9.87%; that for `CCCOc1ccc(CNC(=O)c2ccc(-n3c(C)cc4c3CCC(C)C4)cc2)cc1` (centres undefined), inactive: -17.8%. In the case of `CCOc1ccc(C2NC(=O)c3c(COC)cc(C)nc3N2Cc2ccccc2)cc1OC` (centres undefined) it was inactive: -3.85%. For `Cc1ccc(Cn2cc(S(=O)(=O)c3cccc(Cl)c3)c(=O)c3cc(F)c(N4CCOCC4)cc32)cc1`, the activation was inactive: -6.01%.

As to `CCN(C(=O)CSc1nc2ccccc2[nH]1)c1ccccc1`, the activation is inactive: -23.2%. Consider `Cc1ccc(NC(=O)Cn2ccn(-c3ccccc3)c(=O)c2=O)cc1`, for which the activation is inactive: -1.81%. Consider `COc1cc(OC)c(NC(=O)CCc2c(C)nc3cc(-c4ccccc4OC)nn3c2C)cc1Cl`, for which the activation is inactive: -12.8%. As for `CC(C)OC(=O)c1c(NC(=O)C2c3ccccc3Oc3ccccc32)sc2c1CCCC2`, the activation was inactive: 2.7%. With `Cc1ccc(C)c(N2CCN(C(=O)c3ccc4c(c3)N(Cc3ccc(F)cc3)C(=O)c3ccccc3S4=O)CC2)c1` (centres undefined), the activation is inactive: -8.51%. In the case of `CC1CCC(Nc2nc3c(-c4cccc(C(F)(F)F)c4)nnn3c3ccccc23)CC1` (centres undefined) it was inactive: 25.9%; in that of `Cc1ccc(NC(=O)C2CCCN(S(=O)(=O)c3cn(C(C)C)cn3)C2)c(C)c1` (centres undefined), inactive: 6.23%. In the case of `COc1ccccc1-c1noc(CCC(=O)Nc2ccc(C)cc2C)n1` it was inactive: -4.99%; in that of `CC(=O)c1ccc(Nc2cc(C)nc3nc(Cc4ccc(Cl)cc4)nn23)cc1`, inactive: 10.5%; in that of `CC(C)c1nn2c(=O)cc(COC(=O)c3ccccc3NC(=O)C3CCCCC3)nc2s1`, inactive: -8.45%.

As for `O=C(Nc1cc2c(cc1C(=O)c1ccccc1Cl)OCCO2)c1ccccc1`, the activation is inactive: -12.1%.

As for `CCc1ccc2oc(C(=O)Nc3cc(C)ccc3C)cc(=O)c2c1`, the activation is inactive: 29%. Turning to `CN(C)c1ccc(CNC(=O)c2ccccc2NC(=O)c2nsc3ccccc23)cc1`, the activation was inactive: -11.9%.

`CC1Cc2ccccc2N1C(=O)CSc1nnc(-c2ccccc2Cl)o1` (centres undefined): the activation was inactive: -0.864%. Take `Cc1c(Cl)cccc1NC(=O)c1ncoc1-c1ccco1`: the activation was inactive: -7.08%.

On to `Cc1ccc(NC(=O)C(C)n2nnc3sc4c(c3c2=O)CCCC4)cc1Cl` (centres undefined), for which the activation is inactive: 4.8%.

As to `CCc1ccc(NC(=O)CSc2nc3ccccc3c(=O)n2CCNC(C)=O)cc1`, the activation is inactive: 34.5%. In the case of `CC(=O)c1ccc(NC(=O)CCCSc2nc(-c3ccco3)cc(C(F)(F)F)n2)cc1` it was inactive: 0.415%.
